{"source": "the supplement of paper PMC3334620", "note": "Over roughly 33,000 sequences, “E-score (-0.5 to 0.5)” has its median near -0.056; the highest 2% begin near 0.38. Some of the results follow.", "data": [{"molecular_target": "Stb4 (UniProt P50104)", "experiment": "PBM E-score (8-mer binding enrichment) (E-score (-0.5 to 0.5)); higher = stronger / more preferred TF binding; most listed sequences are background and not binding sites", "settings": "protein concentration: 200 nM; construct: GST-DNA-binding domain", "protocol": "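Universal 'all 10-mer' protein binding microarrays (Agilent AMADID 015681) probed with GST-tagged S. cerevisiae TFs (full-length or DBD) made by in vitro transcription/translation (PURExpress), about 100-200 nM. Bound TF was detected with fluorescent anti-GST. Each ungapped 8-mer (which stands for itself and its reverse complement) is scored by the PBM enrichment score (E-score), a modified Wilcoxon-Mann-Whitney statistic from -0.5 to +0.5, computed with the Universal PBM Analysis Suite. Scale: above 0.35 generally sequence-specific binding.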", "values": [{"sequence": "CCGTTCTA", "PBM E-score": 0.124}, {"sequence": "CCGCAACA", "PBM E-score": 0.075}, {"sequence": "CGCATCAG", "PBM E-score": 0.137}, {"sequence": "ACGGGTCG", "PBM E-score": 0.239}, {"sequence": "ATATCACC", "PBM E-score": -0.00862}, {"sequence": "TGAAGGAA", "PBM E-score": -0.173}, {"sequence": "CGCGCCAA", "PBM E-score": 0.0906}, {"sequence": "ATTTAATG", "PBM E-score": 0.156}, {"sequence": "AGAGCCGC", "PBM E-score": 0.124}, {"sequence": "ACGAAGCT", "PBM E-score": -0.0648}, {"sequence": "ATGTAGCC", "PBM E-score": 0.136}, {"sequence": "ACATTGGA", "PBM E-score": -0.177}, {"sequence": "AATGTTGA", "PBM E-score": 0.0031}, {"sequence": "TGATAGAA", "PBM E-score": -0.223}, {"sequence": "GATTCTTA", "PBM E-score": -0.0637}, {"sequence": "AAAGGCTT", "PBM E-score": -0.2}, {"sequence": "AAGTGCTG", "PBM E-score": -0.266}, {"sequence": "CGCTATCC", "PBM E-score": 0.25}, {"sequence": "AGGTCTAC", "PBM E-score": 0.0618}, {"sequence": "GTATATTA", "PBM E-score": -0.252}, {"sequence": "ACTCATTC", "PBM E-score": 0.17}, {"sequence": "TCTCCAAA", "PBM E-score": -0.144}, {"sequence": "GATTCGTA", "PBM E-score": 0.0772}, {"sequence": "AACAACCC", "PBM E-score": 0.0333}, {"sequence": "CTGTCCTA", "PBM E-score": -0.293}, {"sequence": "ATTCGTGC", "PBM E-score": -0.108}, {"sequence": "CATCGAAG", "PBM E-score": -0.192}, {"sequence": "AATTCTGG", "PBM E-score": -0.175}, {"sequence": "CGATTGCA", "PBM E-score": 0.114}, {"sequence": "ACTCTAAG", "PBM E-score": -0.00837}, {"sequence": "CCCCTTAG", "PBM E-score": -0.149}, {"sequence": "ACTAGTCG", "PBM E-score": -0.0584}, {"sequence": "AAGTTGGC", "PBM E-score": -0.0893}, {"sequence": "ATCAGGGA", "PBM E-score": -0.232}, {"sequence": "GCTGTTCC", "PBM E-score": 0.121}, {"sequence": "ATGCTATG", "PBM E-score": -0.158}, {"sequence": "CCGGAGAA", "PBM E-score": 0.261}, {"sequence": "ATCTAGTA", "PBM E-score": -0.128}, {"sequence": "GTCCGTAA", "PBM E-score": -0.00944}, {"sequence": "GCCATCCA", "PBM E-score": -0.118}, {"sequence": "CGTGTGAC", "PBM E-score": 0.0159}, {"sequence": "GCACTCGA", "PBM E-score": -0.053}, {"sequence": "ACTTATTA", "PBM E-score": -0.116}, {"sequence": "CATAAGCG", "PBM E-score": -0.119}, {"sequence": "ACCAGTTC", "PBM E-score": -0.022}, {"sequence": "CCTTGGCG", "PBM E-score": -0.0179}, {"sequence": "CGAATAGA", "PBM E-score": 0.0103}, {"sequence": "GAGCTTAA", "PBM E-score": -0.0608}, {"sequence": "CCGGTACG", "PBM E-score": 0.146}, {"sequence": "CTTCCACC", "PBM E-score": -0.0439}, {"sequence": "AGGAGTAA", "PBM E-score": -0.0603}, {"sequence": "CTCGACTC", "PBM E-score": -0.13}, {"sequence": "ACCTACAA", "PBM E-score": -0.15}, {"sequence": "ATGGTAAG", "PBM E-score": -0.145}, {"sequence": "GAAATTCC", "PBM E-score": 0.149}, {"sequence": "TATCAGGA", "PBM E-score": -0.235}, {"sequence": "ACAGGTAC", "PBM E-score": -0.089}, {"sequence": "CAAACATC", "PBM E-score": 0.142}, {"sequence": "AACGCGCC", "PBM E-score": 0.111}, {"sequence": "AAATAGTT", "PBM E-score": 0.0385}, {"sequence": "CCCATTGC", "PBM E-score": -0.194}, {"sequence": "GCGGACGC", "PBM E-score": -0.0766}, {"sequence": "CATTCTGA", "PBM E-score": -0.0339}, {"sequence": "GGATGGAC", "PBM E-score": 0.0976}, {"sequence": "ACAGTTCA", "PBM E-score": -0.261}, {"sequence": "CGCCTCCA", "PBM E-score": -0.146}, {"sequence": "ATCACTGC", "PBM E-score": 0.075}, {"sequence": "GTCTGTAA", "PBM E-score": 0.0297}, {"sequence": "TCACTGGA", "PBM E-score": -0.161}, {"sequence": "GAACGATC", "PBM E-score": -0.0262}, {"sequence": "CCTCCCGA", "PBM E-score": 0.387}, {"sequence": "CTACCCGC", "PBM E-score": 0.273}, {"sequence": "CACCCTAA", "PBM E-score": -0.201}, {"sequence": "GCGCTCAA", "PBM E-score": -0.235}, {"sequence": "GCTCTGAC", "PBM E-score": -0.322}, {"sequence": "ACCACATG", "PBM E-score": -0.182}, {"sequence": "CCGGAACA", "PBM E-score": 0.431}, {"sequence": "GGCCCAAC", "PBM E-score": -0.00686}, {"sequence": "TAAATGAA", "PBM E-score": -0.191}, {"sequence": "ACTTAGGC", "PBM E-score": -0.129}, {"sequence": "ACCCCGTC", "PBM E-score": 0.167}, {"sequence": "CTGCCAAC", "PBM E-score": -0.1}, {"sequence": "AGTTAAAC", "PBM E-score": -0.202}, {"sequence": "AACCATGC", "PBM E-score": -0.00932}, {"sequence": "AAAGTCAA", "PBM E-score": 0.00543}, {"sequence": "ACGGCCAG", "PBM E-score": -0.124}, {"sequence": "AGGGTTAC", "PBM E-score": -0.296}, {"sequence": "CGGCCCCG", "PBM E-score": 0.203}, {"sequence": "AAATCAAT", "PBM E-score": 0.0306}, {"sequence": "GCAGGCAA", "PBM E-score": -0.192}, {"sequence": "CTATCTAA", "PBM E-score": -0.0751}, {"sequence": "CGATGCAC", "PBM E-score": -0.141}, {"sequence": "AACAAGAT", "PBM E-score": 0.0176}, {"sequence": "CAACCGCG", "PBM E-score": 0.138}, {"sequence": "AGTCCAGG", "PBM E-score": -0.307}, {"sequence": "CACTCTAG", "PBM E-score": -0.155}, {"sequence": "CCCGGAGG", "PBM E-score": 0.206}, {"sequence": "GATCACAC", "PBM E-score": -0.0425}, {"sequence": "CGGTTCCA", "PBM E-score": 0.157}, {"sequence": "GCTGTCAC", "PBM E-score": -0.0747}, {"sequence": "AGGGTTTC", "PBM E-score": -0.0857}, {"sequence": "AGAACGGG", "PBM E-score": 0.111}, {"sequence": "CTGAAAAA", "PBM E-score": -0.0183}, {"sequence": "CCTTATTC", "PBM E-score": -0.103}, {"sequence": "ACACCGCC", "PBM E-score": 0.0179}, {"sequence": "ACAACGTA", "PBM E-score": -0.257}, {"sequence": "TACTTCCA", "PBM E-score": -0.0188}, {"sequence": "ATCCACAC", "PBM E-score": 0.0848}, {"sequence": "AAGTGTCG", "PBM E-score": 0.0429}, {"sequence": "CGTCGGTC", "PBM E-score": 0.224}, {"sequence": "ACTAATCG", "PBM E-score": 0.144}, {"sequence": "GAGCACGA", "PBM E-score": 0.0394}, {"sequence": "CGCGCTAG", "PBM E-score": 0.0593}, {"sequence": "GCCATACA", "PBM E-score": -0.146}, {"sequence": "GATGATCA", "PBM E-score": 0.0157}, {"sequence": "ATAGGAGA", "PBM E-score": -0.344}, {"sequence": "GGCCGTAA", "PBM E-score": 0.075}, {"sequence": "AGCTAGAT", "PBM E-score": -0.333}, {"sequence": "CCCCTTGA", "PBM E-score": -0.0092}, {"sequence": "TAGGTTCA", "PBM E-score": 0.0146}, {"sequence": "GTTAGCTA", "PBM E-score": -0.0337}, {"sequence": "GCAGACAC", "PBM E-score": 0.117}, {"sequence": "ATCAAATG", "PBM E-score": 0.129}, {"sequence": "CCGGAATA", "PBM E-score": 0.347}, {"sequence": "GTTAAGCA", "PBM E-score": 0.11}, {"sequence": "AGAATGCA", "PBM E-score": 0.0754}, {"sequence": "CGGCATGC", "PBM E-score": 0.267}, {"sequence": "ACTAGGGG", "PBM E-score": -0.0854}, {"sequence": "TGCCTACA", "PBM E-score": 0.0695}, {"sequence": "GCGGGGAC", "PBM E-score": 0.174}, {"sequence": "GTGGTTAA", "PBM E-score": -0.0363}, {"sequence": "CGTCGTGC", "PBM E-score": -0.00663}, {"sequence": "AGGTATAA", "PBM E-score": -0.056}, {"sequence": "AATGTAAA", "PBM E-score": 0.0285}, {"sequence": "CCTGGTCA", "PBM E-score": -0.209}, {"sequence": "AGATCGTG", "PBM E-score": -0.278}, {"sequence": "AAGGCCCA", "PBM E-score": -0.295}, {"sequence": "CACGCATG", "PBM E-score": -0.209}, {"sequence": "AATCATCT", "PBM E-score": -0.146}, {"sequence": "ACCTATCA", "PBM E-score": -0.0596}, {"sequence": "CTATACGA", "PBM E-score": -0.0414}, {"sequence": "CACGGCGG", "PBM E-score": 0.058}, {"sequence": "AAGATAAG", "PBM E-score": -0.117}, {"sequence": "ACCTAGTA", "PBM E-score": -0.16}, {"sequence": "TTCTGCAA", "PBM E-score": -0.0777}, {"sequence": "ATATGCTC", "PBM E-score": 0.143}, {"sequence": "ATACGCAT", "PBM E-score": 0.00311}, {"sequence": "AAGCAGGA", "PBM E-score": 0.0512}, {"sequence": "CCATATGG", "PBM E-score": -0.095}, {"sequence": "TCTGCCAA", "PBM E-score": -0.326}, {"sequence": "GGCCTTAA", "PBM E-score": -0.0387}, {"sequence": "AGACGATA", "PBM E-score": -0.0915}, {"sequence": "AATGCGGA", "PBM E-score": 0.285}, {"sequence": "GGGCTGTA", "PBM E-score": -0.139}, {"sequence": "TACCGGTA", "PBM E-score": 0.149}, {"sequence": "ATGTGACC", "PBM E-score": -0.0651}, {"sequence": "ATGAGAGA", "PBM E-score": -0.171}, {"sequence": "AACCAAGT", "PBM E-score": -0.215}, {"sequence": "CTGAGTCA", "PBM E-score": -0.121}, {"sequence": "CATACCGA", "PBM E-score": 0.287}, {"sequence": "CCCCCAGC", "PBM E-score": -0.172}, {"sequence": "AACCGAAA", "PBM E-score": 0.372}, {"sequence": "AAGACTTA", "PBM E-score": -0.199}, {"sequence": "AGTCTGCC", "PBM E-score": -0.12}, {"sequence": "AGACCTGC", "PBM E-score": -0.287}, {"sequence": "CGACTGGA", "PBM E-score": 0.052}, {"sequence": "GGTCCCAA", "PBM E-score": -0.199}, {"sequence": "CCGCGCTA", "PBM E-score": 0.168}, {"sequence": "CTAGATAA", "PBM E-score": -0.167}, {"sequence": "ATCCTCTG", "PBM E-score": -0.208}, {"sequence": "AATTGCAT", "PBM E-score": -0.0004}, {"sequence": "GCGATACA", "PBM E-score": -0.164}]}]}
